± gives the standard deviation of the averaged measurements. The list shows a part of the results.
These sequences were tested on PfAP2-EXP AP2 domain (GST-tagged) (assay: gcPBM binding intensity (ln(normalized median fluorescence intensity)); higher = stronger DNA binding).
Method in brief: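 In this array assay, P. falciparum DNA-binding domains with a GST tag, expressed in E. coli, were applied for 1 h to primer-extended double-stranded 36-bp intergenic genomic probes and negative controls on an Agilent 4 × 180k array. Bound protein was visualised with Alexa488 anti-GST antibody at 488 nm. Binding intensity is the highest Masliner-normalised natural-log median intensity across replicate spots of either probe orientation.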

| Sequence | gcPBM binding intensity (ln) |
| --- | --- |
| TTAGATATGTGTAAGGGTACAAAATACTTTACATTT [XGTACX_site8204] | 8.25 ± 0.37 |
| AATAGGAAGACTATTTTGTATTTGATTTTTTATTCC [GTGCAC_negctrl_site453] | 8.45 ± 0.55 |
| CATTCAATTGAAAAATGTACAAAAATAAACATATGC [XGTACX_site1663] | 9.05 ± 0.52 |
| TAAGTATACGCATACACACACACACCCAAAAAAAAA [CACACA_site425] | 8.69 ± 0.65 |
| GTTCCAGGCATTCGTGCGCACAAATAGAAACAATTA [GTGCAC_site9824] | 9.19 ± 0.22 |
| ATAATATATGAGCAATGTACATATTTCTCATTGCAC [XGTACX_site2253] | 8.56 ± 0.38 |
| TTTCTATATTGGCATACATGCAAGAACGAAAAGATT [TGCATGCA_site117] | 8.93 ± 0.35 |
| TAAAAATTGCACAGAAGTACAGTATAAATATATATA [XGTACX_site3421] | 8.6 ± 0.31 |
| TAAACATACCTATACACACACACACGCACACGCACA [CACACA_site6372] | 8.74 ± 0.46 |
| GTTGAACATATATGCACACACATAAAATAAAAAAAA [CACACA_site2413] | 8.64 ± 0.39 |
| TTGTGAAACATCAAGAAAAAGAAATAATAAAAAGAA [GTGCAC_negctrl_site38] | 8.87 ± 0.54 |
| TTATATTAATATATATGTACATATATTTTTTTTATA [XGTACX_site6981] | 8.57 ± 0.42 |
| ATACAACAATGTGAATTATATATGGATGGAGAATGA [GTGCAC_negctrl_site148] | 8.81 ± 0.52 |
| TCTTTTTTTTTTTTTTTTTTTTTTTATTTATTCATA [CACACA_negctrl_site1827] | 8.29 ± 0.57 |
| AAAAGGTATCCACATACGCACACCAAAAAAAAAAAT [CACACA_site347] | 8.37 ± 0.47 |
| TTCTTAAGGAACGAACGTACAGAATAAAAAGTAAAA [XGTACX_site4294] | 8.79 ± 0.52 |
| ACGTAAGCGAATAAAAGTACATATATTAAAAAAAAA [XGTACX_site4458] | 8.62 ± 0.43 |
| AATAGAATGTAATATACACACATATATTTCTCTTTT [CACACA_site2630] | 8.15 ± 0.36 |
| TATATATATATATATTGTACACATTGTGTTTAAATA [XGTACX_site5104] | 10 ± 0.43 |
| TTGTAACCTATGCACGCACACAAGAAAAAAACAAAA [CACACA_site3775] | 8.64 ± 0.33 |
| TTTTTATTGTTAATTTTAATTTTTTTTTTTTAATGC [CACACA_negctrl_site162] | 8.14 ± 0.42 |
| TATTCCAAATTTACTAGTACATAATCCATCCGATAA [XGTACX_site1558] | 8.46 ± 0.46 |

| Sequence | gcPBM binding intensity (ln) |
| --- | --- |
| TATTACACATATTATACACACATATATTATAGATAT [CACACA_site6839] | 8.54 ± 0.38 |
| TTTCTTTTTAAATGCTGTACAAAGGGTGACGTTAAA [XGTACX_site4724] | 8.74 ± 0.42 |
| TTTCCTTATAAAAATACACACAAACTTTAATTAAAA [CACACA_site7710] | 8.36 ± 0.41 |
| ATAACTTTATTCAGTTTGCACTTTTATAACAAAAGA | 8.63 ± 0.16 |
| ATTTTTTATATTTAGTGTACATGTTTTAATTTATAA [XGTACX_site7512] | 8.9 ± 0.38 |
| CTTATATAATTCGATAGTACATATTTTTATATATAT [XGTACX_site4045] | 8.43 ± 0.38 |
| TATATATATATAAGCACACAAACAAAAAAAATTATA [CACACA_site3897] | 9.74 ± 0.27 |
| ATATTTTTTAGTAAGACGAAATAAATAAATCTTTAT [CACACA_negctrl_site1778] | 8.21 ± 0.52 |
| TTTTCTTTTTTTTTTGTGCACATAATATATAATTAT | 9.01 ± 0.25 |
| TTTTTCCTATTTTTAGTGCACATATAAATAAATAAA [GTGCAC_site9821] | 9.06 ± 0.35 |
| ATTGAATATGTAAATGCACACCAAAAAAAAAAAAAA [CACACA_site9189] | 8.67 ± 0.28 |
| CGTATTTATAGAATTACACACCATATTGTAATTATT [CACACA_site7722] | 8.47 ± 0.4 |
| TTTTTTTTGTAATACGCATGCTAAAAATATTTATAA [TGCATGCA_site656] | 9.27 ± 0.3 |
| GTGTTTTTATTATTTTGTACACATATATTTAATATT [XGTACX_site2109] | 9.24 ± 0.3 |
| ATTTAAATAAGATATACACACAAGTAGAAGACTATG [CACACA_site806] | 8.82 ± 0.55 |
| TTTTCGATGTTGGTAGGAAGTTTGGTACACGTAGTA [TGCATGCA_negctrl_site145] | 8.62 ± 0.32 |
| GAATGTCTAATTTTGATGCACACTTTTGTGCAATTA [CACACA_site2902] | 8.41 ± 0.12 |
| AAAATTCATATATACACACACGCACATATATATATA [CACACA_site90] | 10.14 ± 0.028 |
| CAAAAAATTCAACACACACACACACCGATAAATAAA [CACACA_site8330] | 8.57 ± 0.61 |
| TTATATTATTCGTGTGTGCACGATATTTCATAATTG [GTGCAC_site9767] | 8.41 ± 0.24 |
| TTGTCCCTATAAGGGGAACACACATAAATGAATATA [CACACA_site8250] | 8.4 ± 0.38 |
| ATAATGTTTTATAATACACACATTATGTATATAAAT [CACACA_site4077] | 8.36 ± 0.38 |

| Sequence | gcPBM binding intensity (ln) |
| --- | --- |
| AAAACTATTTGTAAAAGTACATAATAAATAAATAAA [XGTACX_site7922] | 8.69 ± 0.36 |
| AAAAAAAAAAAAAACACACACACACCCATACAAAAT [CACACA_site1446] | 8.78 ± 0.61 |
| ATGCACTCATTGTGCACACGCATATTACGAAAAGAA [CACACA_site2638] | 9.06 ± 0.071 |
| AATAAATAAAAAACATGTACAAATATAATATAGCAT [XGTACX_site6429] | 9.18 ± 0.5 |
| AAGATTTGAAAAAATACACACAATAAAAAAATAAAA [CACACA_site3281] | 8.73 ± 0.42 |
| TATATATATATGTGTATACACACCTGATAAAGGTAT [CACACA_site2653] | 9.89 ± 0.19 |
| TATTTAACACCTTATACACACTTTCTTCCTTTTTTA [CACACA_site4590] | 8.85 ± 0.5 |
| TATACATATGAAAATACACACATACATACCTATATA [CACACA_site6888] | 8.57 ± 0.47 |
| TAATTGTACGCCAATACACACAGAATTATAATGTAG [CACACA_site6201] | 8.82 ± 0.48 |
| AATAGAAAAAAATAAGTGCATTTTGGTATTCATCAT [GTGCAC_site9614] | 8.6 ± 0.3 |
| GATATTGAGAAAGGGTGTACAAGATATTATACTATA [XGTACX_site3598] | 8.55 ± 0.42 |
| ACATAAATAATAAAAACACACATATGTACATATATA [CACACA_site1913] | 8.72 ± 0.33 |
| TTTTATGTAATTATTTGTACATATGCCTCTTAAACT [XGTACX_site748] | 8.53 ± 0.41 |
| AAATTTATATTCATTTGTACGTAATTTAAATTATAC [XGTACX_site5870] | 8.54 ± 0.35 |
| ACAAAATATACAAAATGTACAAAATTTACAAAATGT [XGTACX_site3544] | 8.36 ± 0.3 |
| AAAAAAAAAAAGCACACACACATATGTGTATTTATA [CACACA_site6578] | 8.38 ± 0.5 |
| TACTAGCAAATACATACACACACACCCATATACATA [CACACA_site9163] | 8.69 ± 0.48 |
| GTAATATATACAAAATGTACAAAACAATAACATGAT [XGTACX_site8575] | 8.8 ± 0.39 |
| ATCCAAACAAATAAAACATGCATAATATATATATAT [TGCATGCA_site766] | 10 ± 0.48 |
| CTCAAATAATTTTTTACACACATTATTTGAAATAAG [CACACA_site1290] | 8.35 ± 0.33 |
| ATGCTTTTATAAATAATTAAAAAAAAAAAAAAAAAA [TGCATGCA_negctrl_site533] | 7.95 ± 0.45 |
| TTTTTTTTTAATATTTGTACACAACATGAAACATTT [XGTACX_site473] | 8.56 ± 0.43 |

| Sequence | gcPBM binding intensity (ln) |
| --- | --- |
| TAAAATATTACGTGTACACATAAATAAAAATAAAAA [CACACA_site5066] | 8.82 ± 0.18 |
| TTTTATATTCCACAAAAAATTATATAATAATAGAAC [CACACA_negctrl_site1741] | 8.74 ± 0.37 |
| TTATTATGCTGAGTACGTACTTATATAAGAATAGCA [XGTACX_site2955] | 9.01 ± 0.4 |
| AAATTATTTCCGTGTACACATAAATATATATTTTAT [CACACA_site5121] | 9.08 ± 0.27 |
| TAAGTTCACAAAAAAAAAAAAAAATAAAGAAATAAA [CACACA_negctrl_site825] | 8.31 ± 0.57 |
| TATCATGTCTGTATTTCACACACGGATAATCATTTA [CACACA_site920] | 8.42 ± 0.38 |
| TGTTATATTTAATATAGTACATATTATTTTATATAT [XGTACX_site70] | 8.34 ± 0.23 |
| AAAAATAAAATATATACATGCATATACATATTATAT [TGCATGCA_site668] | 8.44 ± 0.3 |
| ATGTATATAATAAGAACACACATATATTTAATTTAA [CACACA_site2941] | 8.33 ± 0.47 |
| TATTCTATATTTCTATTTAGAAAACATCCCAGTGTG [GTGCAC_negctrl_site184] | 8.14 ± 0.38 |
| ATACATATATACATACGTACTTATATACATATGTGC [XGTACX_site5268] | 8.56 ± 0.18 |
| ATTTATATGCACCATTGTACGTTTTATAAAGTTTGG [XGTACX_site3755] | 9.04 ± 0.35 |
| AGAAAATTAAAAAGAACACACAAATATATATAGAAT [CACACA_site3592] | 8.96 ± 0.49 |
| AAAATAATATTTAATACACACACCAGTTCTGCAAAT [CACACA_site3736] | 8.73 ± 0.43 |
| TAATAAGTAAAAAAATGTACCCGTTAGGTTTAATAA [XGTACX_site638] | 8.34 ± 0.34 |
| ACAAAAAGGTAATTTACACACTGCATATAGGAATAA [CACACA_site2929] | 8.83 ± 0.59 |
| TTTTTTTATTTTATTTTATTATCTTATGTATCACAA [CACACA_negctrl_site1755] | 8.52 ± 0.49 |
| TTTTTCTCTCTCTTATTATACAACAACAAAAAAAAA [GTGCAC_negctrl_site178] | 8.43 ± 0.38 |
| AGAAATATATATATATATATATGTGACAATATTTGT [TGCATGCA_negctrl_site282] | 8.78 ± 0.47 |
| TTTATATTCTTAAGTGTGCACTATATATATATATAT [GTGCAC_site9719] | 10.38 ± 0.049 |
| ACCCTATATGTAACTACACACCGCATATTGTTTACT [CACACA_site3071] | 9.19 ± 0.43 |
| TTTGTTCATATTATTGTGCACTTAAACGTAACAAAA [GTGCAC_site9505] | 9.115 ± 0.049 |

— the supplement of paper PMC11417369
